Results taken from patent US20250353891A1 (MEDIMMUNE LIMITED, priority 2022, published 2025).
Read-outs that look alike come from different tables or passages of the source. Part of at least one peptide drawing is inferred or uncertain, most often the ends. For at least one compound, name, drawing or mass did not settle the structure. Starred links: 1 amine or outer side, 2 acyl side, 3 side chain; linkers in the order of their positions; H or OH if unused. Non-standard residues stand in square brackets, D forms with d. Residues, ends and D or L forms follow the SMILES beside them. Groups on a side chain read outwards from the residue. *: point of attachment. X1 = CC(C)(CCNC(=N)N)[C@H](N[*:1])C(=O)[*:2]; X2 = CC(C)(CC(N)=O)[C@H](N[*:1])C(=O)[*:2]; C18 diacid = O=C(O)CCCCCCCCCCCCCCCCC(=O)*; γGlu = O=C(O)[C@H](CCC(=O)[*:2])N[*:1]; Stearoyl = CCCCCCCCCCCCCCCCCC(=O)*; Palmitoyl = CCCCCCCCCCCCCCCC(=O)*; αMeF = C[C@](N)(Cc1ccccc1)C(=O)O; Nle = CCCC[C@H](N)C(=O)O; PEG2 = NCCOCCOCCC(=O)O; AEEA = NCCOCCOCC(=O)O; Aib = CC(C)(N)C(=O)O

Columns and labels:
[1] = target: human GLP-1 receptor (hGLP-1R) (Homo sapiens, UniProt P43220); experiment: cAMP production (HTRF) in CHO cells expressing hGLP-1R; format: cell-based; parameters: expressed in transfected cells; conditions: for % Relative Potency Ratio: % GLP-1R activity relative to GLP-1 / % GlucR activity relative to glucagon; for EC50: geometric mean
Procedure: (§1) Cells were re-suspended in assay buffer at a batch-dependent optimized concentration (typically hGLP-1R cells at 1×10^5 cells/mL, hGCGR cells at 2×10^5 cells/mL).
(§2) Cells were added to the assay plate using a multidrop dispenser and incubated at room temperature for 30 minutes before measuring the cAMP level using a cAMP dynamic 2 homogeneous time resolved Fluorescence (HTRF) kit (Cisbio Bioassays #62AM4PEJ) following the two-step protocol as per manufacturer's recommendations. In brief, anti-cAMP cryptate (donor fluorophore) and cAMP-d2 (acceptor fluorophore) were made up separately by diluting each 1 in 20 in conjugate and lysis buffer provided in the kit. Anti-CAMP cryptate was added to all wells of the assay plate, followed by cAMP-d2 added to all wells except non-specific binding (NSB) wells (to which conjugate and lysis buffer was added).
(§3) Data was transformed to % Delta F as described in the manufacturer's guidelines and analyzed by 4-parameter logistic fit to determine EC50 values.

[2] = target: human glucagon receptor (hGCGR) (Homo sapiens, UniProt P47871); experiment: cAMP production (HTRF) in CHO cells expressing hGCGR; format: cell-based; parameters: expressed in transfected cells; conditions: geometric mean, read-out: hGluc-R EC50
Procedure: as §1, §2, §3

[3] = Table 6, peptides modified at position 17, cAMP in CHO hGCGR cells
[4] = Table 6, peptides modified at position 17, cAMP in CHO hGLP-1R cells

Sequence of human GLP-1 receptor (hGLP-1R) (P43220 24-463): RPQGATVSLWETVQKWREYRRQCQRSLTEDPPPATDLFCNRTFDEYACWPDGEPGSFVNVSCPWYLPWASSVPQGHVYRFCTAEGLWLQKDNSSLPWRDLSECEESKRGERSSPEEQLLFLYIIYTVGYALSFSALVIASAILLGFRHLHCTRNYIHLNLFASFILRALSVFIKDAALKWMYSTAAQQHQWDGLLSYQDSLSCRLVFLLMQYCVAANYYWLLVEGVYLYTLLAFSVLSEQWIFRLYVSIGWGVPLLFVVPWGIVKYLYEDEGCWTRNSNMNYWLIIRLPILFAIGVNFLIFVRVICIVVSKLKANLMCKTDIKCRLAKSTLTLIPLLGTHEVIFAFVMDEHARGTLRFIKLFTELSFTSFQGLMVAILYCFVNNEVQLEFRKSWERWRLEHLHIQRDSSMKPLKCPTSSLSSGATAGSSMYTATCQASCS
Sequence of human glucagon receptor (hGCGR) (P47871 26-477): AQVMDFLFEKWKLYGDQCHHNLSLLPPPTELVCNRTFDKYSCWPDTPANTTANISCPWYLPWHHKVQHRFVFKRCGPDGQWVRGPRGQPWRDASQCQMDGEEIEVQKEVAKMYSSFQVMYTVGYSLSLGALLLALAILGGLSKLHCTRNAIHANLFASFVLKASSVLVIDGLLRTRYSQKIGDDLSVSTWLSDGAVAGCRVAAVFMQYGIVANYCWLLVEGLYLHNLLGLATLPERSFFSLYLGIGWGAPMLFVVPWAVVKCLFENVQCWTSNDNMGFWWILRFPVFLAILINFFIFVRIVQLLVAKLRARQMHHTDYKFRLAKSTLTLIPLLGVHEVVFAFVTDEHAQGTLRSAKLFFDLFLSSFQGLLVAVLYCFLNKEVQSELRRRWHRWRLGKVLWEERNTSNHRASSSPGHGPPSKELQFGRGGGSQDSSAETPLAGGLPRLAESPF

Row | Structure (SMILES) | EC50 [2, 3] | EC50 [1, 4] | further results
1 | CCCCCCCCCCCCCCCCCC(=O)N[C@@H](CCC(=O)N[C@@H](CCC(=O)NCCOCCOCCC(=O)NCCOCCOCCC(=O)NCCCC[C@H](NC(=O)[C@H](CO)NC(=O)[C@H](CC(=O)O)NC(=O)[C@H](CC(C)C)NC(=O)C(C)(C)NC(=O)[C@H](CCCCN)NC(=O)[C@H](CO)NC(=O)[C@@H](NC(=O)[C@H](CC(=O)O)NC(=O)[C@H](CO)NC(=O)[C@@H](NC(=O)[C@](C)(Cc1ccccc1)NC(=O)[C@H](CO)NC(=O)CNC(=O)[C@H](CCC(N)=O)NC(=O)C(C)(C)NC(=O)[C@@H](N)Cc1c[nH]cn1)[C@@H](C)O)C(C)C)C(=O)N[C@@H](C)C(=O)N[C@@H](C)C(=O)N[C@@H](CCC(N)=O)C(=O)N[C@@H](CC(=O)O)C(=O)N[C@@](C)(Cc1ccccc1)C(=O)N[C@H](C(=O)N[C@@H](CCC(N)=O)C(=O)NC(C)(C)C(=O)N[C@H](C(=O)N[C@@H](C)C(=O)N[C@@H](CC(N)=O)C(=O)O)[C@@H](C)CC)C(C)C)C(=O)O)C(=O)O [Peptide 101] (H-H[Aib]QGS[αMeF]TSDVSK[Aib]LDSK([PEG2-PEG2-γGlu-γGlu-Stearoyl])AAQD[αMeF]VQ[Aib]IAN-OH; N-terminus assumed) | 119 pM |  | % Relative Potency Ratio ([1]; Table 6): 330.1
2 | CCCCCCCCCCCCCCCCCC(=O)N[C@@H](CCC(=O)N[C@@H](CCC(=O)NCCOCCOCCC(=O)NCCOCCOCCC(=O)NCCCC[C@H](NC(=O)[C@H](CO)NC(=O)[C@H](CC(=O)O)NC(=O)[C@H](CC(C)C)NC(=O)[C@](C)(Cc1ccccc1)NC(=O)[C@H](CCCCN)NC(=O)[C@H](CO)NC(=O)[C@@H](NC(=O)[C@H](CC(=O)O)NC(=O)[C@H](CO)NC(=O)[C@@H](NC(=O)[C@](C)(Cc1ccccc1)NC(=O)[C@H](CO)NC(=O)CNC(=O)[C@H](CCC(N)=O)NC(=O)C(C)(C)NC(=O)[C@@H](N)Cc1c[nH]cn1)[C@@H](C)O)C(C)C)C(=O)N[C@H](C(=O)N[C@@H](C)C(=O)N[C@@H](CCC(N)=O)C(=O)N[C@@H](CC(=O)O)C(=O)N[C@@](C)(Cc1ccccc1)C(=O)N[C@H](C(=O)N[C@@H](CCC(=O)O)C(=O)NC(C)(C)C(=O)N[C@@H](CC(C)C)C(=O)N[C@@H](CCC(=O)O)C(=O)N[C@@H](C)C(=O)NCC(=O)NCC(N)=O)C(C)C)C(C)(C)CCNC(=N)N)C(=O)O)C(=O)O [Peptide 74] (H-H[Aib]QGS[αMeF]TSDVSK[αMeF]LDSK([PEG2-PEG2-γGlu-γGlu-Stearoyl])[X1]AQD[αMeF]VE[Aib]LEAGG-NH2; N-terminus assumed) | 10.9 pM | 1.83 pM | 
3 | CCCCCCCCCCCCCCCC(=O)N[C@@H](CCC(=O)NCCOCCOCCC(=O)NCCOCCOCCC(=O)NCCCC[C@H](NC(=O)[C@H](CCCCN)NC(=O)[C@H](CO)NC(=O)[C@@H](NC(=O)[C@H](CC(=O)O)NC(=O)[C@H](CO)NC(=O)[C@@H](NC(=O)[C@H](Cc1ccccc1)NC(=O)[C@H](CO)NC(=O)CNC(=O)[C@H](CCC(N)=O)NC(=O)C(C)(C)NC(=O)[C@@H](N)Cc1c[nH]cn1)[C@@H](C)O)C(C)C)C(=O)N[C@@H](CC(C)C)C(=O)N[C@@H](CC(=O)O)C(=O)N[C@@H](CO)C(=O)N[C@@H](CCCNC(=N)N)C(=O)N[C@@H](C)C(=O)N[C@@H](C)C(=O)N[C@@H](CCC(N)=O)C(=O)N[C@@H](CC(=O)O)C(=O)N[C@@H](Cc1ccccc1)C(=O)N[C@H](C(=O)N[C@@H](CCC(=O)O)C(=O)N[C@@H](Cc1c[nH]c2ccccc12)C(=O)N[C@H](C(=O)N[C@@H](C)C(=O)N[C@@H](CC(N)=O)C(=O)N[C@H](C(N)=O)[C@@H](C)O)[C@@H](C)CC)C(C)C)C(=O)O [Peptide 402] (H-H[Aib]QGSFTSDVSKK([PEG2-PEG2-γGlu-Palmitoyl])LDSRAAQDFVEWIANT-NH2; N-terminus assumed) |  |  | % Relative Potency Ratio [1]: 34.3; EC50 ([1]; cAMP, CHO cells, 0.1% BSA): 1.04 pM; EC50 ([2]; cAMP, CHO cells, 0.1% BSA): 18.1 pM
4 | CCCCCCCCCCCCCCCC(=O)N[C@@H](CCC(=O)N[C@@H](CCC(=O)NCCOCCOCCC(=O)NCCOCCOCCC(=O)NCCCC[C@H](NC(=O)[C@H](CO)NC(=O)[C@H](CC(=O)O)NC(=O)[C@H](CC(C)C)NC(=O)[C@](C)(Cc1ccccc1)NC(=O)[C@H](CCCCN)NC(=O)[C@H](CO)NC(=O)[C@@H](NC(=O)[C@H](CC(=O)O)NC(=O)[C@H](CO)NC(=O)[C@@H](NC(=O)[C@](C)(Cc1ccccc1)NC(=O)[C@H](CO)NC(=O)CNC(=O)[C@H](CCC(N)=O)NC(=O)[C@H](CO)NC(=O)[C@@H](N)Cc1c[nH]cn1)[C@@H](C)O)C(C)C)C(=O)N[C@@H](C)C(=O)N[C@@H](C)C(=O)N[C@@H](CCC(N)=O)C(=O)N[C@@H](CC(=O)O)C(=O)N[C@@](C)(Cc1ccccc1)C(=O)N[C@H](C(=O)N[C@@H](CCC(N)=O)C(=O)NC(C)(C)C(=O)N[C@H](C(=O)N[C@@H](C)C(=O)NCC(N)=O)[C@@H](C)CC)C(C)C)C(=O)O)C(=O)O [Peptide 91] (H-HSQGS[αMeF]TSDVSK[αMeF]LDSK([PEG2-PEG2-γGlu-γGlu-Palmitoyl])AAQD[αMeF]VQ[Aib]IAG-NH2; N-terminus assumed) | 7.8 pM | 1.57 pM | % Relative Potency Ratio ([1]; Table 6): 9.8
5 | CCCCCCCCCCCCCCCC(=O)N[C@@H](CCC(=O)N[C@@H](CCC(=O)NCCOCCOCCC(=O)NCCOCCOCCC(=O)NCCCC[C@H](NC(=O)[C@H](CO)NC(=O)[C@H](CC(=O)O)NC(=O)[C@H](CC(C)C)NC(=O)[C@](C)(Cc1ccccc1)NC(=O)[C@H](CCCCN)NC(=O)[C@H](CO)NC(=O)[C@@H](NC(=O)[C@H](CC(=O)O)NC(=O)[C@H](CO)NC(=O)[C@@H](NC(=O)[C@](C)(Cc1ccccc1)NC(=O)[C@H](CO)NC(=O)CNC(=O)[C@H](CCC(N)=O)NC(=O)[C@H](CO)NC(=O)[C@@H](N)Cc1c[nH]cn1)[C@@H](C)O)C(C)C)C(=O)N[C@@H](C)C(=O)N[C@@H](C)C(=O)N[C@@H](CCC(N)=O)C(=O)N[C@@H](CC(=O)O)C(=O)N[C@@](C)(Cc1ccccc1)C(=O)N[C@H](C(=O)N[C@@H](CCC(N)=O)C(=O)N[C@H](C(=O)N[C@H](C(=O)N[C@@H](C)C(=O)N[C@@H](CC(N)=O)C(N)=O)[C@@H](C)CC)[C@@H](C)CC)C(C)C)C(=O)O)C(=O)O [Peptide 89] (H-HSQGS[αMeF]TSDVSK[αMeF]LDSK([PEG2-PEG2-γGlu-γGlu-Palmitoyl])AAQD[αMeF]VQIIAN-NH2; N-terminus assumed) | 15.3 pM | 3.77 pM | 
6 | CC[C@H](C)[C@H](NC(=O)C(C)(C)NC(=O)[C@H](CCC(N)=O)NC(=O)[C@@H](NC(=O)[C@](C)(Cc1ccccc1)NC(=O)[C@H](CC(=O)O)NC(=O)[C@H](CCCCNC(=O)COCCOCCNC(=O)COCCOCCNC(=O)CC[C@H](NC(=O)CCCCCCCCCCCCCCCCC(=O)O)C(=O)O)NC(=O)[C@H](C)NC(=O)[C@H](C)NC(=O)[C@H](CCCNC(=N)N)NC(=O)[C@H](CO)NC(=O)[C@H](CC(=O)O)NC(=O)[C@H](CC(C)C)NC(=O)[C@](C)(Cc1ccccc1)NC(=O)[C@H](CCCCN)NC(=O)[C@H](CO)NC(=O)[C@@H](NC(=O)[C@H](CC(=O)O)NC(=O)[C@H](CO)NC(=O)[C@@H](NC(=O)[C@](C)(Cc1ccccc1)NC(=O)[C@H](CO)NC(=O)CNC(=O)[C@@H](NC(=O)[C@H](CO)NC(=O)[C@@H](N)Cc1c[nH]cn1)C(C)(C)CC(N)=O)[C@@H](C)O)C(C)C)C(C)C)C(=O)N[C@@H](C)C(=O)N[C@@H](CC(N)=O)C(=O)N[C@H](C(N)=O)[C@@H](C)O [Peptide 324] (H-HS[X2]GS[αMeF]TSDVSK[αMeF]LDSRAAK([AEEA-AEEA-γGlu-C18 diacid])D[αMeF]VQ[Aib]IANT-NH2; N-terminus assumed) |  |  | EC50 ([1]; Table 7, peptides modified at position 20, cAMP in CHO hGLP-1R cells): 1330 pM; EC50 ([2]; Table 7, peptides modified at position 20, cAMP in CHO hGCGR cells): 1930 pM
7 | CCCCCCCCCCCCCCCCCC(=O)N[C@@H](CCC(=O)N[C@@H](CCC(=O)NCCOCCOCCC(=O)NCCOCCOCCC(=O)NCCCC[C@H](NC(=O)[C@H](CO)NC(=O)[C@H](CC(=O)O)NC(=O)[C@H](CC(C)C)NC(=O)[C@](C)(Cc1ccccc1)NC(=O)[C@H](CCCCN)NC(=O)[C@H](CO)NC(=O)[C@@H](NC(=O)[C@H](CC(=O)O)NC(=O)[C@H](CO)NC(=O)[C@@H](NC(=O)[C@H](Cc1ccccc1)NC(=O)[C@@H](NC(=O)CNC(=O)[C@H](CCC(N)=O)NC(=O)C(C)(C)NC(=O)[C@@H](N)Cc1c[nH]cn1)[C@@H](C)O)[C@@H](C)O)C(C)C)C(=O)N[C@@H](CCCNC(=N)N)C(=O)N[C@@H](C)C(=O)N[C@@H](CCC(N)=O)C(=O)N[C@@H](CC(=O)O)C(=O)N[C@@](C)(Cc1ccccc1)C(=O)N[C@H](C(=O)N[C@@H](CCC(N)=O)C(=O)NC(C)(C)C(=O)N[C@@H](CC(C)C)C(=O)N[C@@H](CCCC)C(=O)N[C@@H](CCC(=O)O)C(=O)N[C@H](C(N)=O)[C@@H](C)O)C(C)C)C(=O)O)C(=O)O [Peptide 69] (H-H[Aib]QGTFTSDVSK[αMeF]LDSK([PEG2-PEG2-γGlu-γGlu-Stearoyl])RAQD[αMeF]VQ[Aib]L[Nle]ET-NH2; N-terminus assumed) | 6.44 pM | 1.14 pM | 
